Assay in all cases: Viability of human cancer cell lines after 72 h of drug (GDSC screen)
Compound in one test: CC1(C)CC(=O)c2c(C(F)(F)F)nn(-c3ccc(C(N)=O)c(N[C@H]4CC[C@H](O)CC4)c3)c2C1 [SNX-2112]
Conditions: top dose 2.56 µM. As for the experimental part:
(§1)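 Human cancer cell lines in 384-well plates, medium with 10% serum, drug for 72 h over a 256-fold dose range (nine 2-fold or five 4-fold steps up to the top dose). Adherent lines were fixed and stained with the nucleic acid dye Syto60, suspension lines read with resazurin; signal relative to control wells, capped at 0 and 100%. One two-parameter sigmoid per drug and line, fitted in a mixed model over all curves with the slope shared within a line.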

Compound in a further test: CC[C@]1(O)C[C@@H]2CN(CCc3c([nH]c4ccccc34)[C@@](C(=O)OC)(c3cc4c(cc3OC)N(C)[C@H]3[C@@](O)(C(=O)OC)[C@H](OC(C)=O)[C@]5(CC)C=CCN6CC[C@]43[C@@H]65)C2)C1 [Vinblastine]
Particulars: top dose 0.1 µM; top dose inferred. As for the experimental part:
as §1

Compound in the next test: CN(C)C/C=C/C(=O)Nc1cc2c(Nc3ccc(F)c(Cl)c3)ncnc2cc1O[C@H]1CCOC1 [Afatinib]
As for the experimental part: as §1

Compound in the next test: O=C(NC1CC1)c1cccc(-c2ccc3c(NC(=O)C4CC4)n[nH]c3c2)c1 [XMD13-2]
Conditions: top dose 10.24 µM; top dose inferred. As for the experimental part:
as §1

[1] abbreviates: top dose 10 µM, screen: GDSC drug entry 1377, top dose inferred.
Where [2] appears, read: top dose 0.5 µM, screen: GDSC drug entry 1032.

Results on 16 cell lines are retold here after the supplement of paper PMC4967469.

IC50 is the fitted dose that halves viability relative to control wells, and lower means more sensitive; a limit (>, <) means that the fit lies beyond the doses tested. AUC is the area under the same curve over the 256-fold range up to the top dose, as a fraction; it is 1 without any effect and falls as sensitivity rises. For part of these data: Where the top dose is marked as inferred, it comes from the curve model; the source does not state it. For part of these data: An entry number marks a drug with two screens in the source, which often give different values.

Broadly, the IC50 is the concentration that gives 50% inhibition.

For “MOLT-13 (T-cell lymphoblastic leukaemia, suspension)”, the AUC is 0.461 with SNX-2112, 0.534 with Vinblastine, 0.949 in the test with Afatinib (setting [1]) and 0.644 with XMD13-2. In addition, the IC50 with SNX-2112 was 127 nM; with Vinblastine, 7.64 nM; with Afatinib (setting [1]) it was greater than 10000 nM; with XMD13-2 it was 1520 nM.

For the cell line NCC021 (kidney, adherent), the AUC with SNX-2112 is 0.82; with Vinblastine, 0.883; with Afatinib (setting [2]), 0.984; with Afatinib (setting [1]), 0.978; with XMD13-2 it was 0.959. Also, the IC50 is 1800 nM with SNX-2112; greater than 100 nM with Vinblastine; greater than 500 nM with Afatinib (setting [2]); greater than 10000 nM in the test with Afatinib (setting [1]); greater than 10200 nM with XMD13-2.

As for “NCI-H146 (small cell lung carcinoma, suspension)”, the AUC in the test with Vinblastine came to 0.94; with Afatinib (setting [2]) it was 0.994; in the test with Afatinib (setting [1]), 0.986. Further, the IC50 was greater than 100 nM with Vinblastine, greater than 500 nM with Afatinib (setting [2]) and greater than 10000 nM with Afatinib (setting [1]).

In the case of “NCI-H508 (large intestine, semi-adherent)”, the AUC stood at 0.866 in the test with Vinblastine, 0.613 in the test with Afatinib (setting [2]) and 0.691 with Afatinib (setting [1]). The IC50 with Vinblastine is greater than 100 nM; with Afatinib (setting [2]), 79.2 nM; in the test with Afatinib (setting [1]) it was 3120 nM.

On to NCI-H835 (lung carcinoid, suspension), for which the AUC in the test with Vinblastine turned out to be 0.89; with Afatinib (setting [2]), 0.989; with Afatinib (setting [1]), 0.972. For the same cell line, the figures for the IC50 in the test with Vinblastine, with Afatinib (setting [2]) and with Afatinib (setting [1]) were greater than 100 nM, greater than 500 nM and greater than 10000 nM, respectively.

In the case of “NCI-H841 (small cell lung carcinoma, adherent)”, the AUC is 0.84 with SNX-2112; 0.456 with Vinblastine; 0.941 in the test with Afatinib (setting [2]); 0.94 with Afatinib (setting [1]); 0.867 with XMD13-2. Moreover, the IC50 is 1770 nM with SNX-2112; 4.73 nM with Vinblastine; greater than 500 nM in the test with Afatinib (setting [2]); greater than 10000 nM with Afatinib (setting [1]); 9330 nM with XMD13-2.

Regarding NCI-H929 (myeloma, suspension), the values for the AUC with Vinblastine, with Afatinib (setting [2]) and in the test with Afatinib (setting [1]) were 0.551, 0.973 and 0.962, respectively. The IC50 in the test with Vinblastine is 8.44 nM; with Afatinib (setting [2]) it was greater than 500 nM; in the test with Afatinib (setting [1]), greater than 10000 nM.

For “NCI-H1105 (small cell lung carcinoma, suspension)”, the AUC came out at 0.549 in the test with Vinblastine, 0.992 with Afatinib (setting [2]) and 0.985 in the test with Afatinib (setting [1]). Further, the values for the concentration for half-maximal inhibition (IC50) in the test with Vinblastine, with Afatinib (setting [2]) and with Afatinib (setting [1]) were 8.27 nM, greater than 500 nM and greater than 10000 nM, respectively.

Take “NCI-H1341 (small cell lung carcinoma, suspension)”: the values for the AUC with Vinblastine, with Afatinib (setting [2]) and with Afatinib (setting [1]) were 0.899, 0.989 and 0.977, respectively. Also, the IC50 in the test with Vinblastine is 93.4 nM; in the test with Afatinib (setting [2]), greater than 500 nM; with Afatinib (setting [1]), greater than 10000 nM.

Turning to “NCI-H1734 (lung adenocarcinoma, adherent)”, the AUC with SNX-2112 amounted to 0.819; in the test with Vinblastine, 0.797; with Afatinib (setting [2]), 0.933; with XMD13-2, 0.951. In addition, the IC50 with SNX-2112 was 1650 nM; with Vinblastine, 52.5 nM; with Afatinib (setting [2]) it was greater than 500 nM; with XMD13-2, greater than 10200 nM.

For OACM5-1 (oesophagus, semi-adherent), the AUC with SNX-2112 came out at 0.324; with Vinblastine, 0.885; in the test with Afatinib (setting [2]), 0.986; with Afatinib (setting [1]), 0.985; with XMD13-2, 0.873. Also, the IC50 in the test with SNX-2112 is 48.2 nM; with Vinblastine it was greater than 100 nM; with Afatinib (setting [2]), greater than 500 nM; with Afatinib (setting [1]), greater than 10000 nM; in the test with XMD13-2 it was greater than 10200 nM.

Consider OACp4C (oesophagus, adherent), for which the AUC with SNX-2112 is 0.409; with Vinblastine, 0.469; in the test with Afatinib (setting [2]) it was 0.883; in the test with Afatinib (setting [1]) it was 0.866; with XMD13-2 it was 0.891. The IC50 in the test with SNX-2112 was 85.5 nM; with Vinblastine, 5.04 nM; with Afatinib (setting [2]) it was greater than 500 nM; with Afatinib (setting [1]), greater than 10000 nM; with XMD13-2, greater than 10200 nM.

OC-314 (ovary, adherent): the AUC was 0.812 in the test with SNX-2112; 0.549 in the test with Vinblastine; 0.958 with Afatinib (setting [2]); 0.932 in the test with Afatinib (setting [1]); 0.914 in the test with XMD13-2. Also, the IC50 in the test with SNX-2112 was 1140 nM; in the test with Vinblastine, 8.35 nM; with Afatinib (setting [2]), greater than 500 nM; with Afatinib (setting [1]), greater than 10000 nM; with XMD13-2 it was greater than 10200 nM.

Regarding OCI-LY7 (B-cell lymphoma, suspension), in the test with Vinblastine, the AUC stood at 0.426 and the IC50 was 4.15 nM. In addition, in the test with Afatinib (setting [2]), the AUC is 0.971 and the IC50 is greater than 500 nM.

OE21 (oesophagus, adherent): the AUC with SNX-2112 turned out to be 0.789; with Vinblastine, 0.315; with Afatinib (setting [2]) it was 0.438; with Afatinib (setting [1]), 0.456; in the test with XMD13-2 it was 0.969. In addition, the IC50 is 1620 nM with SNX-2112; 1.55 nM with Vinblastine; 19.8 nM with Afatinib (setting [2]); 455 nM with Afatinib (setting [1]); greater than 10200 nM with XMD13-2.

Regarding OV-7 (ovary, adherent), the AUC turned out to be 0.573 with SNX-2112; 0.717 in the test with Vinblastine; 0.952 with Afatinib (setting [2]); 0.898 with Afatinib (setting [1]); 0.954 in the test with XMD13-2. Besides, the IC50 with SNX-2112 is 280 nM; with Vinblastine, 35.9 nM; with Afatinib (setting [2]), greater than 500 nM; in the test with Afatinib (setting [1]) it was greater than 10000 nM; with XMD13-2, greater than 10200 nM.
